The source of these data is article PMC5892938.

The list shows a part of the results. At the low end of the ranking, values are background and their order means little.

The experiment concerns the target GST-SBP-SLBP (stem-loop binding protein) (UniProt Q14493). In words: targeted RNA Bind-n-Seq.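 Further: DESeq read counts versus GST-SBP nonspecific binding control pulldown.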 The following applies: RBNS binding buffer: 25 mM Tris pH 7.5, 150 mM KCl, 3 mM MgCl2, 0.1% Tween, 0.5 mg/mL BSA, 1 mM DTT; 27 nM protein, 750 pM RNA pool; temperature not stated; high values mean tight binding.
“GGUCACGUCUCAAUCAACUCCUCAGAGGGGGGGAAAACCCCUUUACCCUCACUUUCAACAGCUCGCAGUCAAG”: the binding signal (log2 fold change) was -0.113.

With “GGUCACGUCUCAAUCAACUCUAACGAGGGGGGGAAAACCCCUUUACCCUCUCCAUCAACAGCUCGCAGUCAAG”, the binding signal (log2 fold change) was -0.271.

Take “GGUCACGUCUCAAUCAACUCAACUUCAGGAGUUUCCUCCUGUAUUUUCAACAGCUCGCAGUCAAG”: the binding signal (log2 fold change) is -0.0274.

On to “GGUCACGUCUCAAUCAACUCUAUCCCAGGAGUUUUCUCCUGCUAAUUCAACAGCUCGCAGUCAAG”, for which the binding signal (log2 fold change) stood at 0.181.

For “GGUCACGUCUCAAUCAACUCUCAAGAGGGGGGGAAAACCCCUUUGCCCUCCGUAUCAACAGCUCGCAGUCAAG”, the binding signal (log2 fold change) was -0.0682.

In the case of “GGUCACGUCUCAAUCAACUCUAUUUCAGGAGUUUCCUCCUGUUUACUCAACAGCUCGCAGUCAAG”, the binding signal (log2 fold change) is -0.062.

“GGUCACGUCUCAAUCAACUCAAUCUCAGGAGUUUCCUCCUGCAUUUUCAACAGCUCGCAGUCAAG”: the binding signal (log2 fold change) is -0.125.

In the case of “GGUCACGUCUCAAUCAACUCUCAAGAGGGGGGGAAAACCCCUUUGCCCUCAUCCUCAACAGCUCGCAGUCAAG”, the binding signal (log2 fold change) was -0.0803.

Take “GGUCACGUCUCAAUCAACUCUAUCCCCAGGGAAACCCCUGGUUUUUUCAACAGCUCGCAGUCAAG”: the binding signal (log2 fold change) is -0.446.

For the sequence “GGUCACGUCUCAAUCAACUCCUAAGAGGGGGGGAAAACCCCUUUACCCUCAAUAUCAACAGCUCGCAGUCAAG”, the binding signal (log2 fold change) is -0.334.

As for “GGUCACGUCUCAAUCAACUCAUCUUCAGGAGUUUCCUCCUGUAUUCUCAACAGCUCGCAGUCAAG”, the binding signal (log2 fold change) amounted to 0.0242.

On to “GGUCACGUCUCAAUCAACUCAUCUCCCAGGGAAAGCCCUGGUAUAUUCAACAGCUCGCAGUCAAG”, for which the binding signal (log2 fold change) was -0.254.

Consider “GGUCACGUCUCAAUCAACUCCCAAAGGUUUUUCUUAGAGCCACCCAUCAACAGCUCGCAGUCAAG”, for which the binding signal (log2 fold change) was found to be 0.293.

Turning to “GGUCACGUCUCAAUCAACUCUAUUUCCAGGGAAAUCCCUGGUAUAUUCAACAGCUCGCAGUCAAG”, the binding signal (log2 fold change) amounted to 0.0946.

For the sequence “GGUCACGUCUCAAUCAACUCCCAAGAGGGGGGGAAAACCCCUUUACCCUCGUUAUCAACAGCUCGCAGUCAAG”, the binding signal (log2 fold change) is -0.598.

“GGUCACGUCUCAAUCAACUCAAUGUCCAGGGAAAUCCCUGGUUUUUUCAACAGCUCGCAGUCAAG”: the binding signal (log2 fold change) was -0.141.

Turning to “GGUCACGUCUCAAUCAACUCUAUUCCCAGGGAAACCCCUGGUUUUCUCAACAGCUCGCAGUCAAG”, the binding signal (log2 fold change) was -0.0262.

“GGUCACGUCUCAAUCAACUCGUUUUCAGGAGUUUCCUCCUGUAUUUUCAACAGCUCGCAGUCAAG”: the binding signal (log2 fold change) is -0.0502.

On to “GGUCACGUCUCAAUCAACUCUUUAGAGGGGGGGAAAACCCCUUUGCCCUCAAUCUCAACAGCUCGCAGUCAAG”, for which the binding signal (log2 fold change) was -0.195.

Regarding “GGUCACGUCUCAAUCAACUCAAUCUCAGGAGUUUGCUCCUGUAUAUUCAACAGCUCGCAGUCAAG”, the binding signal (log2 fold change) amounted to 0.0629.

On to “GGUCACGUCUCAAUCAACUCUUCUUCAGGAGUUUUCUCCUGCAAUUUCAACAGCUCGCAGUCAAG”, for which the binding signal (log2 fold change) turned out to be 0.116.

“GGUCACGUCUCAAUCAACUCAUUCGCCAGGGAAAUCCCUGGGUAUUUCAACAGCUCGCAGUCAAG”: the binding signal (log2 fold change) was 0.219.

On to “GGUCACGUCUCAAUCAACUCUACUCCCAGGGAAAUCCCUGGCUUUUUCAACAGCUCGCAGUCAAG”, for which the binding signal (log2 fold change) worked out at 0.121.

Regarding “GGUCACGUCUCAAUCAACUCUACUUCCAGGGAAAUCCCUGGUAUUCUCAACAGCUCGCAGUCAAG”, the binding signal (log2 fold change) is -0.00825.

As for “GGUCACGUCUCAAUCAACUCAAUUUCAGGAGUUUUCUCCUGCAUAGUCAACAGCUCGCAGUCAAG”, the binding signal (log2 fold change) worked out at 0.00244.

As for “GGUCACGUCUCAAUCAACUCAAUUUCAGGAGUUUCCUCCUGUAUACUCAACAGCUCGCAGUCAAG”, the binding signal (log2 fold change) is -0.0953.

As to “GGUCACGUCUCAAUCAACUCACUAGAGGGGGGGAAAACCCCUUUGCCCUCCAUAUCAACAGCUCGCAGUCAAG”, the binding signal (log2 fold change) is -0.16.

With “GGUCACGUCUCAAUCAACUCAAUCUCAGGAGUUUCCUCCUGUAUUUUCAACAGCUCGCAGUCAAG”, the binding signal (log2 fold change) was -0.0402.

“GGUCACGUCUCAAUCAACUCUUUUCCCAGGGAAAACCCUGGCAUAUUCAACAGCUCGCAGUCAAG”: the binding signal (log2 fold change) is 0.281.

With “GGUCACGUCUCAAUCAACUCAAUUUCCAGGGAAAUCCCUGGCUAAUUCAACAGCUCGCAGUCAAG”, the binding signal (log2 fold change) stood at 0.122.

As for “GGUCACGUCUCAAUCAACUCAUUAGAGGGGGGGAAAACCCCUUUGCCCUCAUCCUCAACAGCUCGCAGUCAAG”, the binding signal (log2 fold change) was -0.0248.

Consider “GGUCACGUCUCAAUCAACUCAAUCUCAGGAGUUUACUCCUGUAUGUUCAACAGCUCGCAGUCAAG”, for which the binding signal (log2 fold change) was found to be 0.108.

For “GGUCACGUCUCAAUCAACUCAUCUUCCAGGGAAAUCCCUGGCAAAUUCAACAGCUCGCAGUCAAG”, the binding signal (log2 fold change) came out at 0.00867.

With “GGUCACGUCUCAAUCAACUCUUUCUCAGGAGUUUUCUCCUGCUAUGUCAACAGCUCGCAGUCAAG”, the binding signal (log2 fold change) came to 0.213.

With “GGUCACGUCUCAAUCAACUCAUUCGAGGGGGGGAAAACCCCUUUACCCUCAAUCUCAACAGCUCGCAGUCAAG”, the binding signal (log2 fold change) came out at 0.0563.

For “GGUCACGUCUCAAUCAACUCACAAGAGGGGGGGAAAACCCCUUUACCCUCCGCAUCAACAGCUCGCAGUCAAG”, the binding signal (log2 fold change) was -0.00381.

For the sequence “GGUCACGUCUCAAUCAACUCUUUCGAGGGGGGGAAAACCCCUUUACCCUCACUAUCAACAGCUCGCAGUCAAG”, the binding signal (log2 fold change) was found to be 0.237.
